B1: Adrenocorticotropic hormone receptor (Homo sapiens), Q01718 (parent)
chain: MKHIINSYENINNTARNNSDCPRVVLPEEIFFTISIVGVLENLIVLLAVFKNKNLQAPMYFFICSLAISDMLGSLYKILENILIILRNMGYLKPRGSFETTADDIIDSLFVLSLLGSIFSLSVIAADRYITIFHALRYHSIVTMRRTVVVLTVIWTFCTGTGITMVIFSHHVPTVITFTSLFPLMLVFILCLYVHMFLLARSHTRKISTLPRANMKGAITLTILLGVFIFCWAPFVLHVLLMTFCPSNPYCACYMSLFQVNGMLIMCNAVIDPFIYAFRSPELRDAFKKMIFCSRYW
partner: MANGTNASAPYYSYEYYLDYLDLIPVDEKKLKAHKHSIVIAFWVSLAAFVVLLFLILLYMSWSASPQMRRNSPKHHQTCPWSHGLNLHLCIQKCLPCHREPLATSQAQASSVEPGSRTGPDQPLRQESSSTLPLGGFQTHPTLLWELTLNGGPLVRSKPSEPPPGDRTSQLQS

The first assay covers variants of B1. Conditions: with q8tcy5-1 MRAP.
On to F278C, for which the “effect of a mutation on the interaction” value was “with no effect”.
Y129C;F278C: the “effect of a mutation on the interaction” value is recorded as “disrupting interaction strength”.
The same measure, in the same setting: with Y129C the entry was “disrupting interaction strength”.

Variants of B1 are the subject of a further assay. Conditions: with q8tcy5-1 MRAP. This is another data set of the same source.
Consider Y129C, for which the “effect of a mutation on the interaction” value was “with no effect”.
